Measurements taken from PMC4350111.
Results are given in words; binding and its absence hold for the method and conditions named. For some assays here: Binding seen in cells or lysates may run through a third protein. Some results given as binding are weak or reduced against the parent protein; the word gives no strength. One block for each substance: values may come before it.

Chains of the proteins cited; added tags and fusions are not shown. Lines headed by an entry give the natural chain unless they say otherwise; changes in a name come on top.
UniProt Q9UNE7: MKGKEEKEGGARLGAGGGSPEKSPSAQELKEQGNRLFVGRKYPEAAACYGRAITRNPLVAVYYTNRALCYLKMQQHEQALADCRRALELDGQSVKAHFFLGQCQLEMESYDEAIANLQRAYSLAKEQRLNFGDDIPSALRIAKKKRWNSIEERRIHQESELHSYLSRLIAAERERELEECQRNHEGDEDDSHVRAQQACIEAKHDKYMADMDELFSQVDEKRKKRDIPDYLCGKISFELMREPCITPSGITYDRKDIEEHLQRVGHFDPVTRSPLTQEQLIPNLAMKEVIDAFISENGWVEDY
UniProt P03372: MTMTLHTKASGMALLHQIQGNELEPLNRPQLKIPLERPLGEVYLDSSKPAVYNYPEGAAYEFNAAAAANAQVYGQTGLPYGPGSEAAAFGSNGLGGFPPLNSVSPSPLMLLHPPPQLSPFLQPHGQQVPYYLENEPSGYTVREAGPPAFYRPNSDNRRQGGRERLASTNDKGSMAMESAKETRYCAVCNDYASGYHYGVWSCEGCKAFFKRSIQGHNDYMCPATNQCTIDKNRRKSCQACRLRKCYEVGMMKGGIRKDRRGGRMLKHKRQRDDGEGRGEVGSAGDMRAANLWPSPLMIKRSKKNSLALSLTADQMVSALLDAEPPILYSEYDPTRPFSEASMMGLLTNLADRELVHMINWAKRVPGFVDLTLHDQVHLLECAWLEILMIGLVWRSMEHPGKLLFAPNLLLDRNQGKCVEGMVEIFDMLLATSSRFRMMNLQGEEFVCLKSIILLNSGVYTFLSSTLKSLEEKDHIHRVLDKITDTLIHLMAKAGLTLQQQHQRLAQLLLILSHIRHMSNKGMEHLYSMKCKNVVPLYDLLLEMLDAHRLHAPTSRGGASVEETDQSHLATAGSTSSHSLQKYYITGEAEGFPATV
UniProt Q99728: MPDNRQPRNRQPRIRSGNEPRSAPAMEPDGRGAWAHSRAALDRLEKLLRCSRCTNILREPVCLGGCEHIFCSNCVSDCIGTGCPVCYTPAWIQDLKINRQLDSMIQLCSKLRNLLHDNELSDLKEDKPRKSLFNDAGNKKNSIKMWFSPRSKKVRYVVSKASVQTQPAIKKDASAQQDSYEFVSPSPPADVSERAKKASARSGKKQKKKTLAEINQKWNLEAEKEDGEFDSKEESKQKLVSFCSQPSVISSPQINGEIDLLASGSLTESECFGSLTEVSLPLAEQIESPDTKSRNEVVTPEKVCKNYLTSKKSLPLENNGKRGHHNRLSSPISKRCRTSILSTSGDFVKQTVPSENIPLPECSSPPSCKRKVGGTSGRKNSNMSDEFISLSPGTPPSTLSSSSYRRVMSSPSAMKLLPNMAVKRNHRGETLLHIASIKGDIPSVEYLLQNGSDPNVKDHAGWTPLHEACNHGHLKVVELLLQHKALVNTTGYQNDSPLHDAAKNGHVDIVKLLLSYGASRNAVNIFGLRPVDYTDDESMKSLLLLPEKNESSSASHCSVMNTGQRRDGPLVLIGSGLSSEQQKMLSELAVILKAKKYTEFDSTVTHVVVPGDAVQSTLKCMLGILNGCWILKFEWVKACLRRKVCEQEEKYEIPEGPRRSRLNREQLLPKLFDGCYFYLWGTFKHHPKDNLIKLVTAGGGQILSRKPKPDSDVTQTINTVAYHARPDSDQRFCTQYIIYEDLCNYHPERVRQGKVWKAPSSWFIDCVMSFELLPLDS
UniProt Q00987: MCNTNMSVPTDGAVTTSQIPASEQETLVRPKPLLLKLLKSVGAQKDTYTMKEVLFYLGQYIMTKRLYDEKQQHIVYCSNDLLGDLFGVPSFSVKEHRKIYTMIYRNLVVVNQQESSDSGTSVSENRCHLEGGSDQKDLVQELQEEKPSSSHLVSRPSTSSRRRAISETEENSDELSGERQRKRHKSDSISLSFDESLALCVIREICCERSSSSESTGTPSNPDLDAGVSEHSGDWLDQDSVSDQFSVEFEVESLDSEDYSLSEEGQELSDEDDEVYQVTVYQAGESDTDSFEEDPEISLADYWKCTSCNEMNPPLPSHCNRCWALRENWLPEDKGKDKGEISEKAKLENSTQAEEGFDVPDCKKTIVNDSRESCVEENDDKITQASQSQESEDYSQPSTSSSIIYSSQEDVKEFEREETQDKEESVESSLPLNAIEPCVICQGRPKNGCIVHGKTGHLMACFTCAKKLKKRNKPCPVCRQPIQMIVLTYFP
UniProt Q01167: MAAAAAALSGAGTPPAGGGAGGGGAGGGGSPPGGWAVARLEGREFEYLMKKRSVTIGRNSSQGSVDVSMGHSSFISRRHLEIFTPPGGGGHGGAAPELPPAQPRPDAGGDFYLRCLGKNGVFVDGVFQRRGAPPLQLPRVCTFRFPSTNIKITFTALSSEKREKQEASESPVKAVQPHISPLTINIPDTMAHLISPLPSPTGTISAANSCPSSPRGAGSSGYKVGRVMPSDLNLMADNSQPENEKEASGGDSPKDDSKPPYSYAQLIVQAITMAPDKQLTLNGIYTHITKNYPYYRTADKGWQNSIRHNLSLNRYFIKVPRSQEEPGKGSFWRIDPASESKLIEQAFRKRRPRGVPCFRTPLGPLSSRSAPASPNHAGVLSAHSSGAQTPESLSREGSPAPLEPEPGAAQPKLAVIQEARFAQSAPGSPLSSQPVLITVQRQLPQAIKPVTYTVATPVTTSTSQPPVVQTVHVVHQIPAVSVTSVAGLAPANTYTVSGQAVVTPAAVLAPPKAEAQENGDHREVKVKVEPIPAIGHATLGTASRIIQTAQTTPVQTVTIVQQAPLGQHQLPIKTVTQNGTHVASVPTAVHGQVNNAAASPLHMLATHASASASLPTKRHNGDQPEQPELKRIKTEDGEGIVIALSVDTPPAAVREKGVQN

Key:
[1] = molecular target: C terminus of Hsc70-interacting protein (CHIP) (UniProt Q9UNE7); assay: co-IP; tagged proteins transiently expressed in HEK 293T; immunoprecipitation by one tag, Western blot by the other (in some panels vice versa); in Fig. 2g, 4h and 4i cells treated with 10 μM MG132 for 8 h; in Fig. 4h FOXK2 overexpressed, in Fig. 4i FOXK2 knocked down by siRNA
[2] = molecular target: Flag-ERα (UniProt P03372); assay: as above
[3] = molecular target: EGFP-ERα (UniProt P03372); assay: as above
[4] = molecular target: HA-BARD1 (UniProt Q99728); assay: as above
[5] = molecular target: pBIND-ERα fusion protein (UniProt P03372); assay: two-hybrid; CheckMate mammalian two-hybrid system (Promega) in HEK 293T with the pG5-luc reporter; luciferase measured 36 h after transfection
[6] = molecular target: endogenous ERα (estrogen receptor alpha) (human (endogenous in MCF-7 and T47D)) (UniProt P03372); assay: co-IP; endogenous proteins from MCF-7 (and T47D) lysates; immunoprecipitation with an antibody against one partner, Western blot for the other, or vice versa; anti-IgG as control; lysis in 50 mM Tris-HCl pH 8.0, 150 mM NaCl, 0.1% SDS, 1% NP-40, 0.5% sodium deoxycholate; 4°C overnight
[7] = molecular target: endogenous MDM2 (murine double minute 2) (human (endogenous in MCF-7)) (UniProt Q00987); assay: as above
[8] = molecular target: endogenous BARD1 (BRCA1-associated RING domain protein 1) (human (endogenous in MCF-7)) (UniProt Q99728); assay: as above
[9] = molecular target: Flag-ERα (UniProt P03372); assay: co-IP; re-immunoprecipitation: MCF-7 cells transfected with Flag-ERα and HA-BARD1; immunoprecipitation with anti-Flag, re-immunoprecipitation with anti-HA, Western blot with anti-FOXK2, anti-Flag or anti-HA
[10] = molecular target: HA-BARD1 (UniProt Q99728); assay: as above

Substance: EGFP-FOXK2 (from UniProt Q01167 1-660)
binding [2]: binds

Substance: Flag-tagged full-length FOXK2 (from UniProt Q01167 1-660)
binding [3]: binds
binding [4]: binds

Second part, the substance after the results:

binding [1]: no binding
Substance: FOXK2 (transfected, construct not named, Fig. 4b) (from UniProt Q01167 1-660)

binding [5]: binds
Substance: pACT-FOXK2 fusion protein (from UniProt Q01167 1-660)

binding [6]: binds
binding [7]: no binding
binding [8]: binds
binding [9]: binds
binding [10]: binds
Substance: endogenous FOXK2 (Forkhead box K2) (from UniProt Q01167 1-660)

binding [4]: binds
Substance: His-Flag-FOXK2 (from UniProt Q01167 1-660)
